Screen size: about 380,000 compounds; about 25 (0.007%) were called active. The shares of active, inactive and inconclusive entries below differ from those in the screen. Calls follow the shape of the dose curve; as a rule, active = well fitted activation curve with a large enough effect; inconclusive = small, poorly fitted or top-dose-only effect; inactive = no such curve, though single readings can be large or run the other way. Potencies of inconclusive entries are left out as doubtful fits.
Target: Glucagon-like peptide 1 receptor (Homo sapiens) (UniProt P43220)
Test: qHTS of GLP-1 Receptor Agonists; as to activation: % of control where 0% means no effect
Conditions: HEK293 GLP-1R CRE-luciferase, luminescence, 4-6 h, cells express a hypersensitive GLP-1R form; activation: at 45.6 µM (top of the series) unless noted
Potency is read from the fitted curve at half-maximal effect; tags tell the direction and shape of the fitted curve.

Chain of UniProt P43220 (P43220 whole entry, looked up): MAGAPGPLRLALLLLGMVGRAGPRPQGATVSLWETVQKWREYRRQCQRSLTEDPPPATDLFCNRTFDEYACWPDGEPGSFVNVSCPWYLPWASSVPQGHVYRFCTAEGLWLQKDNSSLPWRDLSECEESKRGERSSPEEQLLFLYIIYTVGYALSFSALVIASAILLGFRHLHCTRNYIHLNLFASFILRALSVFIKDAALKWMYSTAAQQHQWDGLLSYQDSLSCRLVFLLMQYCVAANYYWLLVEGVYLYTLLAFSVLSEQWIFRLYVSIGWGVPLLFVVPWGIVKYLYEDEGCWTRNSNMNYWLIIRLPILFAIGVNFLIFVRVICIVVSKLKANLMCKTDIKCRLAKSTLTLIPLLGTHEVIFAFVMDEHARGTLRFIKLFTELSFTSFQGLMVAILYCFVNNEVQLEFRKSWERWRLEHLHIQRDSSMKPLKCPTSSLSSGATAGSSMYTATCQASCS

| SMILES | Potency | activation |
| --- | --- | --- |
| CCOC(=O)C(CC)Sc1nc2c(c(=O)[nH]c(=O)n2C)n1C/C=C(/C)Cl (stereo not drawn) | inconclusive [activator, single point] | – |
| Cc1onc(-c2c(Cl)cccc2Cl)c1C(=O)N1CCOCC1 | – | inactive: -0.228% |
| COc1ccc(-c2nc(C#N)c(N3CCCCCC3)o2)cc1 | inconclusive [activator, partial curve, poor fit] | – |
| CCCCC[C@H](C)N1C[C@H](COCc2ccccc2)Oc2cc(N3CC[C@H](O)C3)ccc2S1(=O)=O | – | inactive: -0.168% |
| CCN1N=C(c2ccccc2)Cn2c1nc1ccccc12 | inconclusive [activator, partial curve, poor fit] | – |
| COc1ccc(OC)c(C(=O)CN2C(=O)NC(C)(c3ccccc3)C2=O)c1 (stereo not drawn) | inconclusive [activator, partial curve, poor fit] | – |
| COc1ccc(C(C)=O)cc1COC(=O)c1ccc2c(c1)OCCO2 | inconclusive [activator, partial curve] | – |
| COc1ccc(NC(=O)Cn2c(=O)n(Cc3ccco3)c(=O)c3cc(OC)c(OC)cc32)cc1 | – | inactive: -4.09% |
| O=[N+]([O-])c1ccccc1S(=O)(=O)N1CCN(C2CCN(Cc3ccccc3)CC2)CC1 | – | inactive: 2.8% |
| COc1ccc(-c2nn3c(-c4ccco4)nnc3s2)cc1OC | inconclusive [activator, single point] | – |
| COc1ccc(C(CNC(=O)Cc2ccc3ccccc3c2)N(C)C)cc1 (stereo not drawn) | – | inactive: 7.76% |
| O=C(/C=C/c1ccccc1)NC(NC(=S)Nc1ccc(Cl)cc1Cl)C(Cl)(Cl)Cl (stereo not drawn) | – | inactive: -10.3% |
| COc1cc2[nH]cc(C(=O)NCc3cccs3)c(=O)c2cc1OC | inconclusive [activator, single point] | – |
| Cc1ccc(NC(=O)c2ccc(=O)[nH]c2)cc1S(=O)(=O)N1CCCCCC1 | inconclusive [activator, single point] | – |
| Cc1ccc(-c2c[n+](CC(=O)Nc3nc(-c4ccccc4)cs3)c3n2CCC3)cc1 | – | inactive: -1.21% |
| Cc1ccc(OCCCOc2cccc3cccnc23)cc1C | inconclusive [activator, partial curve, poor fit] | – |
| CCOC(=O)N1CCC2(CC1)C(C#N)=C(N)Oc1c2sc2nc(C)cc(C)c12 | inconclusive [activator, partial curve, poor fit] | – |
| O=C1C(Cl)=C(N2CCOCC2)C(=O)N1c1ccc(Br)cc1 | – | inactive: -5.74% |
| COc1ccc(-c2cnc3c(NC=O)cc(-c4ccc(F)cc4)cn23)cc1OC | inconclusive [activator, full curve, poor fit] | – |
| COC(=O)c1ccccc1OCCCCN1CC(C)OC(C)C1 (stereo not drawn) | – | inactive: 1.99% |
| O=C(c1ccccc1)c1ccccc1C(=O)c1ccccc1 | inactive | – |
| COc1ccccc1C(=O)Nc1ccc(OCC(=O)N2CC(C)CC(C)C2)cc1 (stereo not drawn) | – | inactive: -5.06% |
| CCN1CCN(c2ccc(S(=O)(=O)N3CCCCC3)cc2NC(=O)/C=C/c2cc(OC)ccc2OC)CC1 | – | inactive: -4.15% |

| SMILES | Potency | activation |
| --- | --- | --- |
| CC[N+](CC)(CC)CCOc1cccc(OCC[N+](CC)(CC)CC)c1OCC[N+](CC)(CC)CC | inactive | – |
| CC(C)(C)NCC(O)c1cc(O)cc(O)c1 (stereo not drawn) | inconclusive [activator, full curve] | – |
| CCN1C(=O)c2cccc3c(NC(=O)c4ccccc4)ccc1c23 | inconclusive [activator, partial curve, poor fit] | – |
| COc1cccc(Nc2nc(N)c([N+](=O)[O-])c(NCc3ccco3)n2)c1 | inconclusive [activator, partial curve, poor fit] | – |
| Cc1ccc(-c2nc3ccccc3c(=O)n2CCCN2CCOCC2)cc1 | inconclusive [activator, single point] | – |
| O=[N+]([O-])c1cc(-c2csc(NC(CO)c3nc4ccccc4n3CCOCCO)n2)ccc1Cl (stereo not drawn) | inconclusive [activator, partial curve, poor fit] | – |
| CCOC(=O)c1c(NC(=O)CN2CCCCC2)sc2c1CCCC2O (stereo not drawn) | inconclusive [activator, partial curve, poor fit] | – |
| COCCCNc1oc(-c2ccccc2Cl)nc1C#N | inconclusive [activator, single point] | – |
| CCOc1ccccc1CNS(=O)(=O)c1ccc(-c2cnc(C3CC3)o2)cc1 | inconclusive [activator, partial curve] | – |
| COc1ccc(CN(C)C(=O)COC(=O)c2cc([N+](=O)[O-])ccc2N2CCCC2)c(OC)c1OC | inconclusive [activator, partial curve] | – |
| CC1(C)NC(=O)N(CCCOc2ccc(Br)cc2Cl)C1=O | inconclusive [activator, partial curve, poor fit] | – |
| COc1cc(/C=N/O)ccc1OCc1ccccc1Cl | inconclusive [activator, partial curve] | – |
| CCOC(=O)C(CC)Sc1ncnc2sc3c(c12)CCCC3 (stereo not drawn) | inconclusive [activator, partial curve, poor fit] | – |
| CCCCCCn1c(N2CCC(C)CC2)nc2c1c(=O)[nH]c(=O)n2C | inconclusive [activator, full curve] | – |
| COc1cc(/C=N/NC(=S)NC2CC3CC2C2C=CCC32)ccc1O (stereo not drawn) | inconclusive [activator, partial curve, poor fit] | – |
| Cc1cnc(NC(=O)C(C)N2CCN(C)CC2)s1 (stereo not drawn) | inconclusive [activator, partial curve, poor fit] | – |
| COc1ccc(/C=C(\C#N)C(=O)Nc2ccccn2)cc1 | – | inconclusive: 34.1% [activator] |
| CCN(CC)S(=O)(=O)c1cccc(C(=O)/C=C2/N(C)c3ccccc3C2(C)C)c1 | – | inactive: 14.3% |
| Cc1ccc2c(CSc3nc4ccccc4c(=O)n3CCCO)cc(=O)oc2c1C | inconclusive [activator, partial curve] | – |
| CSc1nc(C(C)C)ccc1CNC(=O)CC(C)c1ccccc1 (stereo not drawn) | inconclusive [activator, partial curve, poor fit] | – |
| CCCCN(CCCNC(=O)c1c(C)cc(=O)oc1C)c1ccccc1 | inconclusive [activator, partial curve, poor fit] | – |
| COc1ccc(CNC(=O)C(c2ccc(C)o2)N(C(=O)c2csnn2)c2ccc(C(C)C)cc2)cc1 (stereo not drawn) | – | inactive: -2.69% |
| COc1ccc(C(=O)OCC(=O)Nc2sccc2C(N)=O)cc1OC | inconclusive [activator, single point] | – |

| SMILES | Potency | activation |
| --- | --- | --- |
| NC(c1ccccc1)c1ccncc1 (stereo not drawn) | inconclusive [activator, partial curve, poor fit] | – |
| Cc1cc(C)c(O)c(-c2n[nH]c3c2C(c2cccc(O)c2)N(Cc2ccco2)C3=O)c1 (stereo not drawn) | – | inactive: 12.3% |
| CCOC(=O)c1ccc(NC(=S)N(CCCN2CCCCC2)Cc2ccco2)cc1 | – | inconclusive: 53.7% [activator] |
| Cn1c(=O)[nH]c(=O)c2c1nc(Sc1ncccn1)n2CCCc1ccccc1 | inconclusive [activator, partial curve, poor fit] | – |
| O=c1oc(CCO)cc2ccc(-c3ccc4[nH]ccc4c3)cc12 | inconclusive [activator, single point] | – |
| O=C(NCCCCc1ccccc1)c1cccc(NC(=O)c2ccccc2)c1 | – | inactive: -0.291% |
| Nc1c2c(nc3ccn(-c4ccccc4)c(=O)c13)CCCCC2 | – | inactive: 10% |
| O=C(CSc1nc2c([nH]c3ccccc32)c(=O)n1-c1cccc(Cl)c1)NCC1CCCO1 (stereo not drawn) | – | inactive: -2.62% |
| O=C(NCc1cccnc1)c1cc(C2CCCN(C(=O)c3cccs3)C2)on1 (stereo not drawn) | – | inactive: 11.4% |
| CC(C)(C)NS(=O)(=O)c1ccc(NC(=O)C2CCCCC2)cc1 | inconclusive [activator, partial curve, poor fit] | – |
| Cc1ccc(S(=O)(=O)N2CCN(C)CC2)cc1-c1nnc2c3ccccc3c(C)nn12 | inconclusive [activator, partial curve, poor fit] | – |
| COc1cc2c(cc1OC)-c1cc(OCc3cccnc3)nc(=O)n1CC2 | inconclusive [activator, partial curve, poor fit] | – |
| CCCn1c(SCC(=O)Nc2ccc(NC(C)=O)cc2)nc2c1c(=O)n(C)c(=O)n2C | inconclusive [activator, single point] | – |
| CCn1c(C)cc(/C=C2/SC(=O)N(C(C)C(=O)OC)C2=O)c1C (stereo not drawn) | inconclusive [activator, partial curve, poor fit] | – |
| CCCCn1c(SCc2ccc(C(=O)OC)o2)nc2cc(S(N)(=O)=O)ccc21 | inconclusive [activator, partial curve] | – |
| CCOc1ccc(C2=Nn3c(nnc3-c3ccc(OC)cc3)SC2)cc1 | active: 10 µM | – |
| COCCCNC(=S)Nc1ccc2c(c1)OCCO2 | – | inactive: 1.28% |
| O=C(Nc1ncc(Cc2cccc(Cl)c2)s1)c1cccs1 | – | inactive: 7.86% |
| Cc1ccc(C)c(N(C)C(=O)c2cc3c(s2)-c2ccccc2OC3)c1 | – | inactive: 9.69% |
| CC1Cc2ccccc2N1C(=O)COc1ccc2c(c1)OCO2 (stereo not drawn) | inconclusive [activator, single point] | – |
| COC(=O)Nc1nc(-c2ccccc2)c(C(=O)c2ccccc2)s1 | inconclusive [activator, partial curve, poor fit] | – |
| COc1ccc(-c2nc3ccc([N+](=O)[O-])cc3[nH]2)cc1 | inconclusive [activator, single point] | – |

Source: PubChem BioAssay AID624172 (National Center for Advancing Translational Sciences (NCATS), 2012)
